Measured values published in patent US20220349893A1, “METHODS FOR THE TREATMENT OF ARID1A-DEFICIENT CANCERS” (The Wistar Institute of Anatomy and Biology, priority 2019, published 2022).

Tests used:
[1] = test system: RMG1 cells; assay: CB-839 IC50 in ARID1A wild-type control and knockout RMG1 cells; assay type: cell-based
Description: FIG. 3. ARID1A-deficient cells are sensitive to glutaminase inhibition. The inventors also tested CB-839, a specific glutaminase inhibition, in ARID1A wild-type control and knockout RMG1 cells. The inventors chose CB-839 for our experiments because it is the only GLS inhibitor that is now in clinical trials for other diseases and is proven safe in clinical trials including in combination studies.

[2] = test system: HCCC1806 cells; conditions: 1 μM; 72 hours; cited from earlier work
[3] = test system: HCC1806 cells; conditions: 0.1-1000 nM; 72 hours; read-out: IC50, antiproliferative activity; cited from earlier work
[4] = test system: ARID1A-mutated or knockout cells; assay: Sensitivity to CB-839 with aspartate supplementation or SLC1A3 expression; assay type: cell-based
Description: FIG. 5. Supplementation of aspartate abolishes sensitivity to CB-839.

[5] = test system: MDA-MB-231 cells; conditions: 1 μM; 72 hours; cited from earlier work
[6] = biological target: glutaminase in brain; conditions: cited from earlier work
[7] = biological target: glutaminase in kidney; conditions: cited from earlier work
[8] = test system: ARID1A mutated TOV21G OCCC cells; assay: Orthotopic xenograft model formed by ARID1A mutated TOV21G OCCC cells; assay type: in vivo, mouse; conditions: 200 mg/kg orally twice daily for three weeks
Description: FIG. 10. A GLS inhibitor selectively decreases ARID1A-deficient tumors in vivo. The inventors sought to determine the therapeutic potential of GLS inhibitor CB-839 for ARID1A-mutated tumors. Toward this goal, they used three different mouse models. First, they used orthotopic xenograft models formed by ARID1A mutated TOV21G OCCC cells. Briefly, the orthotopically transplanted cells were allowed to grow for one week to establish the orthotopic tumors. Mice were then randomized and treated twice daily for three weeks with vehicle control or CB-839 (200 mg/kg) orally, feeding with normal and aspartic acid free food. The used tumor weight as a surrogate for tumor burden.

[9] = test system: glutamine utilization by the tumors; assay: Glutamine levels in treated tumors; conditions: in vivo
Description: FIG. 16. GLSi increases the Gln levels in tumors.

[10] = test system: MDA-MB-231 cells; conditions: 0.1-1000 nM; 72 hours; read-out: IC50, antiproliferative activity; cited from earlier work
[11] = test system: ARID1A mutated OCCC PDX; assay: ARID1A-mutated PDX OCCC xenograft model; assay type: in vivo, mouse
Description: (§1) FIG. 14. A GLS inhibitor selectively decreases ARID1A-deficient PDX. ARID1A wild-type and mutated PDX OCCC xenograft models were used to evaluated the antitumor effect of glutaminase inhibitor.

[12] = test system: Arid1a-/-/Pik3caH1047R ovarian clear cell carcinoma; assay: Conditional genetic Arid1a/Pik3caH1047R OCCC mouse model; conditions: CB-839 200 mg/kg twice daily orally, pre-established genetic OCCC model
[13] = test system: ARID1A wild-type control RMG1 cells; assay: Tumors formed by ARID1A wild-type control RMG1 cells; assay type: in vivo, mouse
Description: (§2) FIG. 11. A GLS inhibitor selectively decreases ARID1A-deficient tumors in vivo.

[14] = test system: ARID1A knockout RMG1 cells; assay: Orthotopic xenografts formed by ARID1A knockout RMG1 cells; assay type: in vivo, mouse
Description: as §2

[15] = test system: ARID1A wild-type OCCC PDX; assay: ARID1A wild-type PDX OCCC xenograft model; assay type: in vivo, mouse
Description: as §1

[16] = test system: experimental glioblastoma; conditions: combined with calorie-restricted ketogenic diet; cited from earlier work
[17] = water; cited from earlier work

In the case of `O=C(Cc1cccc(OC(F)(F)F)c1)Nc1ccc(CCCCc2nnc(NC(=O)Cc3ccccn3)s2)nn1` [CB-839, Telaglenastat], the “decrease of the IC50 of CB-839 by ARID1A knockout compared with ARID1A wild-type control cells” value ([1]; RMG1 cells, ARID1A knockout vs wild-type control) is given as “more than 300 fold”, the “rescue of the decrease in CB-839 IC50” value ([1]; ectopic expression of wild-type ARID1A in ARID1A knockout RMG1 cells) is given as “can be rescued by ectopic expression of wild-type ARID1A” and the “caspase 3/7 activation and apoptosis” value [2] is given as “activates caspase 3/7 and induces apoptosis”. For the same molecule, the IC50 [3] was 49 nM, the “sensitivity to CB-839 on ectopic expression of aspartate transporter SLC1A3” value ([4]; RMG1 knockout cells without endogenous SLC1A3) was “reduced the sensitivity to CB-839” and the “sensitivity to CB-839 on addition of aspartate” value ([4]; aspartate added to culture medium of ARID1A-mutated or knockout cells) was “reduced the sensitivity to CB-839”. For the same molecule, the “caspase 3/7 activation and apoptosis” value [5] was “activates caspase 3/7 and induces apoptosis”, the IC50 [6] was 23 nM and the IC50 [7] was 28 nM. The “burden of orthotopic xenografts (tumor weight)” value [8] was “significantly reduced the burden of orthotopic xenografts”, the “survival of tumor bearing mice” value [8] was “significant improvement of survival” and the “effect on tumor burden with aspartic acid free food” value ([8]; aspartic acid free food) was “The effect was enhanced”. The “glutamine levels in the treated tumors” value [9] was “significantly increased glutamine levels”, the IC50 [10] was 26 nM and the tumor burden [11] was “significantly reduced the tumor burden”. For the same molecule, the “tumor burden (tumor weight)” value [12] was “significantly reduced the burden”, the growth of tumors [13] was “did not significantly affect the growth of tumors” and the “burden of orthotopic xenografts” value [14] was “significantly reduced the burden of orthotopic xenografts”. The tumor burden [15] was “but not ARID1A wild-type”.
For `[N-]=[N+]=CC(=O)CC[C@H](N)C(=O)O` [DON, 6-Diazo-5-oxo-L-norleucine], the “tumor cell kill, disease symptoms and overall survival” value [16] is given as “kill tumor cells while reversing disease symptoms and improve overall survival” and the solubility [17] is given as “water-soluble”.
